In PubChem BioAssay AID686970 (National Center for Advancing Translational Sciences (NCATS), 2013):
The campaign covered roughly 360,000 compounds. About 6,000 (1.7%) were called active. This list was built around the results that the source calls inconclusive (neither active nor inactive); the mix of calls is not that of the screen. Calls come from the whole dose curve; as a rule, active = well fitted cell-killing curve with a large enough effect; inconclusive = small, poorly fitted or top-dose-only effect, or effect the other way; inactive = flat fitted curve, though single readings scatter. Potencies of inconclusive entries are left out as doubtful fits.

Assay: qHTS for induction of synthetic lethality in tumor cells producing 2HG: qHTS for the HT-1080-NT fibrosarcoma cell line; note: nearly all actives have a fitted effect of over 55% in size
Details: HT-1080-NT fibrosarcoma viability, CellTiter-Glo ATP luminescence, 48 h; activity, negative = less viability: at 46.1 µM (top of the series) unless noted
Text: Unbiased genomic sequencing for 22 glioma genomes found recurrent mutation of IDH1 on chromosome 2q33, a gene encoding the cytosolic isoform of IDH1 associated with the tricarboxylic acid cycle (TCA) that catalyzes the oxidative decarboxylation of isocitrate, yielding alpha-ketoglutarate and CO2 via NADP+ to NADPH conversion. Subsequent studies confirmed the recurrent IDH mutations in up to 70% of secondary gliomas and in 10% of AML cases. In addition, the somatic mutation of cancer-associated IDH1 is a point mutation resulting in various amino-acid substituents at Arginine132 (IDH1 R132), a key residue found in the enzyme's active site that when mutated, results in the loss-of-function in metabolizing isocitrate but confers a gain-of-function to produce the oncometabolite 2-hydroxyglutarate (2HG). This in effect defines IDH1 as an oncogene and provides an extraordinary opportunity to discover chemical probes against mutant IDH1 that may translate into much needed new therapies for glioma and AML patients.
This assay aims to perform a synthetic lethal screen for chemical probes specific for 2HG-producing tumor cells using matched paired cell lines (1) HT-1080-NT fibrosarcoma cell line that overproduces 2HG and (2) HT-1080-IDH1KD cell line which has IDH1 expression knocked-down. Desirable compounds are toxic to the NT fibrosarcoma cells but not to the IDH1KD cell line. The data in this AID corresponds to the results of the qHTS against the HT-1080-NT fibrosarcoma cell line.
[1] Dang L, Jin S, Su SM. IDH mutations in glioma and acute myeloid leukemia. Trends of Mol Med. 2010; 16(9): 387-97.
[2] Dang L et al. Cancer-associated IDH1 mutations produce 2-hydroxyglutarate. Nature. 2010; 465(7300):966.
NIH Molecular Libraries Probe Production Centers Network [MLPCN]
NIH Chemical Genomics Center [NCGC]
Assay Submitter (PI): Lenny Dang Ph.D., Agios Pharmaceuticals
Suspensions of trypsinized HT-1080-NT cells were dispensed into white, tissue culture-treated, solid 1536-well plates at 5uL/well (750 cells/well final concentration) in RPMI medium supplemented with 5% FBS. Plates were incubated at 37 degrees C for 2 hours, after which 23 nL of compounds or DMSO were delivered to each well using a pin tool. Plates were then incubated at 37 degrees C for an additional 48 hours. CellTiter-Glo viability reagent (Promega) was dispensed into wells (2.5uL/well) and incubated at room temperature for 10 minutes. The plates were measured on a PerkinElmer ViewLux plate reader for luminescent signal (clear filter, 1 sec exp). DMSO-treated control wells and media-only (no cells) control wells were used to normalize %Activity of identified toxic compounds; DMSO-treated wells corresponded to 0%Activity (100% viability), while media-only controls were used to normalize 100%Activity (0% viability).
Concentration-response curves were fitted to the signals arising from the resulting luminescence. The concentration-effect curves were then classified based on curve quality (r2), response magnitude and degree of measured activity, and compounds were subsequently categorized based on their curve class.
Potency is the fitted concentration of half-maximal effect; tags give direction and shape of the fitted curve.

Row | Compound | Potency | activity, negative = less viability
1 | CCOC(=O)c1ccc(NC(=O)c2nc(S(=O)(=O)Cc3ccccc3)ncc2Cl)cc1 | active: 5.8 µM | –
2 | CCOC(=O)Cc1csc(NC(=O)CCS(=O)(=O)Cc2ccccc2)n1 | inconclusive [cytotoxic, single point] | –
3 | O=C(CN1C(=O)COc2ccccc21)NC1CCCC1 | – | inactive: 15.2%
4 | Cc1ccc2c(c1)c1c(n2CC(O)CNC2CCCCC2)CCCC1 (stereo unspecified) | active: 20.6 µM | –
5 | COC(=O)c1cnn(-c2ccc(F)cc2F)c1/C=N/NC(N)=S | inconclusive [cytotoxic, single point] | –
6 | CCCCNC(=O)c1sc(=S)n(-c2ccccc2OC)c1N | – | inactive: 3.3%
7 | Cc1cccc(-n2c(-c3csc(C)c3)n[nH]c2=S)c1 | inconclusive [cytotoxic, single point] | –
8 | Oc1ccc(-n2nnnc2SCc2ccccc2Br)cc1 | inconclusive [cytotoxic, single point] | –
9 | CCc1cccc(CC)c1-n1c(SCC(=O)N2CCc3ccccc32)nc(O)cc1=O | – | inconclusive: -29.4% [cytotoxic]
10 | CCOC(=O)C1=C(C)N=c2sc(=Cc3ccc(OCC(=O)O)cc3)c(=O)n2C1c1ccc(SC)cc1 (stereo unspecified) | inconclusive [cytotoxic, single point] | –
11 | CSCCC(NC(=O)c1ccccc1Cl)C(=O)N1CC(C)OC(C)C1 (stereo unspecified) | – | inactive: 5.4%
12 | CCN1C(=O)/C(=C\c2cccs2)C(C(=O)OC)=C1C | – | inactive: -20.4%
13 | O=C(NCC1(c2ccccc2)CCCC1)C1(c2ccccc2)CCCC1 | inconclusive [cytotoxic, single point] | –
14 | CSCCC1NC(=O)N(CC(=O)N2N=C(c3ccc(Cl)cc3)CC2c2ccco2)C1=O (stereo unspecified) | inconclusive [cytotoxic, single point] | –
15 | C=C(C)CCC1(C)NC(=O)N(c2ccccc2)N1 (stereo unspecified) | active: 9.2 µM | –
16 | CCCn1nc(C(=O)NNC(=O)CSC(C)C(=O)Nc2cc(C)on2)c2ccccc2c1=O (stereo unspecified) | – | inactive: -3.11%
17 | Cc1nn(-c2ccccc2)c2nc(N)c(C#N)c(-c3ccc(O)c(O)c3)c12 | inconclusive [cytotoxic, partial curve] | –
18 | Cc1c(C(=O)N/N=C/C(C)C)[nH]c2c([N+](=O)[O-])cccc12 | inconclusive [cytotoxic, full curve] | –
19 | NS(=O)(=O)c1ccc(CNC(=O)c2cc(-c3ccccn3)nc3ccc(Cl)cc23)cc1 | – | inactive: -18.3%
20 | Cc1cc(N2C(=O)C(=O)/C(=C(/O)c3ccccc3)C2c2cccs2)no1 (stereo unspecified) | – | inactive: -4%
21 | Cc1cc(C(=O)Nc2ccc(F)c(Cl)c2)on1 | – | inactive: 6.72%
22 | CCOc1ccccc1/C=C(/NC(=O)c1ccccc1)C(=O)NC(C)c1ccccc1 (stereo unspecified) | – | inactive: -1.05%
23 | C[C@@H]1CCC[C@H](C)N1Cc1nc(Cc2ccccc2Cl)no1 | – | inactive: 10.8%
24 | c1ccc(Nc2scc(-c3ccccc3)[n+]2Cc2ccco2)cc1 | inconclusive [cytotoxic, single point] | –

Row | Compound | Potency | activity, negative = less viability
25 | CC(C)COc1ccc(C(=O)OCC(=O)N(C)CC(=O)Nc2ccc(F)cc2)cc1 | inconclusive [cytotoxic, partial curve] | –
26 | O=C(CNc1cccc2ccccc12)N/N=C/c1ccc([N+](=O)[O-])o1 | inconclusive [cytotoxic, single point] | –
27 | CCCCCCOc1ccc(N2C(=O)CC(N(CCc3ccc(S(N)(=O)=O)cc3)C(C)=O)C2=O)cc1 (stereo unspecified) | – | inactive: -27.4%
28 | O=C(NCCCn1ccnc1)c1cc(-c2ccccc2)on1 | inconclusive [cytotoxic, partial curve] | –
29 | Cn1c(NCc2ccco2)nc2c1c(=O)n(Cc1ccc(Br)cc1)c(=O)n2C | – | inactive: -23%
30 | COc1cc(S(=O)(=O)N2CCN=C2c2ccccc2)ccc1F | inconclusive [cytotoxic, single point] | –
31 | CC(C)(C)c1ccc(CN2C3=NCCCN3c3ccccc32)cc1 | inconclusive [cytotoxic, single point] | –
32 | N#Cc1cccc2c1-c1ccccc1/C2=N/NC(N)=O | inconclusive [cytotoxic, single point] | –
33 | COc1ccccc1NC(=O)C(C)OC(=O)C(C)SCC(=O)Nc1ccc(C)cc1 (stereo unspecified) | – | inactive: -5.57%
34 | c1ccc2nc(-c3nc4ccccc4o3)ccc2c1 | active: 10 µM | –
35 | COc1ccc(-c2c[n+](CC(=O)c3ccccc3)c3n2CCCCC3)cc1 | inconclusive [cytotoxic, single point] | –
36 | N#Cc1ccccc1C[C@H](N)C(=O)NC[C@H]1O[C@@H](n2ccc(N)nc2=O)[C@H](O)[C@@H]1O | – | inactive: 14.7%
37 | Cc1nc(-c2ccccc2)nc2[nH]c(C(C)C)cc(=O)c12 | – | inactive: -16.6%
38 | CC(C)(C)c1cc(C(=O)N2CCc3ccccc32)ccn1 | inconclusive [cytotoxic, single point] | –
39 | CCCN(CCC)Cc1c(C(=O)N/N=C/c2c[nH]c3ccccc23)nnn1-c1nonc1N | inconclusive [cytotoxic, single point] | –
40 | Cc1occc1C(=O)O/N=C(\N)c1ccc(Cl)cc1 | – | inactive: -5.77%
41 | CN(C(=O)c1ccc(NC(=O)Cc2ccc(NC(=O)C3CCN(C(=O)C4CCCCC4)CC3)cc2)cc1)C1CC1 | inconclusive [cytotoxic, single point] | –
42 | O=C(NC(=S)Nc1ccccc1N1CCCC1)c1ccc(-c2cccc([N+](=O)[O-])c2)o1 | inconclusive [cytotoxic, single point] | –
43 | Cc1ccc(S(=O)(=O)N2C[C@H]3N(C(=O)OC(C)C)N(C(=O)OC(C)C)C[C@H](OC(=O)NCC4CCCCC4)[C@@]3(O)C2)cc1 | active: 20.6 µM | –
44 | Cc1cccc(Cl)c1OCCCCn1ccnc1 | inconclusive [cytotoxic, partial curve] | –
45 | COC(=O)[C@]12CCCCC=C1N(CCc1ccc(OC)c(OC)c1)C(=O)[C@H](CC(=O)NCc1cccc(C(F)(F)F)c1)C2 | inconclusive [cytotoxic, single point] | –
46 | O=C(CCl)N=c1sccn1Cc1ccc(Cl)cc1Cl | active: 5.8 µM | –
47 | Cc1ccc(O)c(C2=Nc3ccccc3N=C(c3ccco3)C2)c1 | inconclusive [cytotoxic, partial curve] | –
48 | COc1ccc(C(=O)N(CC2CCCO2)C(C(=O)NC2CCCC2)c2ccc(Cl)cc2)cc1OC (stereo unspecified) | – | inactive: -4.21%

Row | Compound | Potency | activity, negative = less viability
49 | Cc1nn(Cc2c(F)c(F)c(F)c(F)c2F)c(C)c1NC(=O)c1cccc(COc2ccccc2Cl)c1 | inconclusive [cytotoxic, single point] | –
50 | Cc1ccc2nc(SCC(=O)Nc3cc(C(F)(F)F)ccc3N3CCOCC3)[nH]c2c1 | inconclusive [cytotoxic, full curve] | –
51 | CC(C)n1c(SCc2ccc(Cl)cc2)nc2c1c(=O)[nH]c(=O)n2C | inconclusive [cytotoxic, partial curve] | –
52 | COc1ccc(C(OCC(O)CN(C)C2CCCCC2)c2ccc(OC)cc2)cc1 (stereo unspecified) | inconclusive [cytotoxic, partial curve] | –
53 | COc1cc(C(=O)N/N=C/c2sc(N3CCOCC3)nc2-c2ccccc2)cc(OC)c1OC | – | inactive: -23.3%
54 | CC1=CC(C)(C)N(S(=O)(=O)c2ccc(F)cc2)c2ccc(C)cc21 | active: 7.08 µM | –
55 | C=CCOC(=O)N1CCC2CC1c1c(-c3ccc(C(F)(F)F)cc3)cccc12 (stereo unspecified) | inconclusive [cytotoxic, single point] | –
56 | O=C(N/N=C/c1ccccc1O)c1ccc2c(c1)OCO2 | inconclusive [cytotoxic, full curve, poor fit] | –
57 | CCc1cccc(C)c1NC(=O)COC(=O)c1c2c(nc3ccccc13)/C(=C\c1cccs1)CCC2 | – | inactive: -0.562%
58 | CCN(CC)CCCNC(=O)C1c2ccccc2C(=O)N(C)C1c1ccc(OC)cc1 (stereo unspecified) | – | inactive: -5.16%
59 | C=C1CC(COc2cc(=O)oc3ccccc23)(c2ccccc2)OC1=O (stereo unspecified) | active: 16.4 µM | –
60 | COCCCNC(=O)/C(C#N)=C/c1cccc(NC(=O)c2ccccc2Cl)c1 | inconclusive [cytotoxic, partial curve] | –
61 | CCOc1ccc(NC(=O)C(=O)N/N=C\c2ccc(CNS(=O)(=O)c3ccccc3)o2)cc1 | inconclusive [cytotoxic, partial curve] | –
62 | Cc1ccc2occ(/C=N/NC(=O)c3ccccc3C)c(=O)c2c1 | inconclusive [cytotoxic, single point] | –
63 | CN(c1ccc(Cl)cc1)c1cc(=O)n(C)c2ccccc12 | inconclusive [cytotoxic, single point] | –
64 | Cc1cc2ccc3ccccc3c2cc1CN(C)C | active: 32.6 µM | –
65 | CC(CC(=O)OCC(=O)Nc1ccc2[nH]c(=O)[nH]c2c1)c1ccccc1 (stereo unspecified) | – | inactive: -3.55%
66 | COc1cccc2c(Nc3ccccc3C)cc(C)nc12 | inconclusive [cytotoxic, single point] | –
67 | CC1CCCN(S(=O)(=O)c2ccc(C(=O)Nc3nnc(C4CC4)o3)cc2)C1 (stereo unspecified) | – | inactive: -21.6%
68 | CC(C)Nc1nc(NC(C)C)nc(OCCOC(=O)Nc2ccccc2)n1 | – | inactive: -1.28%
69 | COC(=O)[C@]12CCCCC=C1N(Cc1ccc3c(c1)OCO3)C(=O)[C@H](CC(=O)NCC13CC4CC(CC(C4)C1)C3)C2 | inconclusive [cytotoxic, single point] | –
70 | CCOc1ccc(N(CC(=O)Nc2cccc(F)c2)S(=O)(=O)c2c(C)noc2C)cc1 | inconclusive [cytotoxic, single point] | –
71 | Cc1cc(NC(c2cccnc2)c2ccc3cccnc3c2O)no1 (stereo unspecified) | inconclusive [cytotoxic, partial curve] | –
